The supplement of paper PMC8948288
Shown are siRNA guide strands that differ only in the seed, positions 2 to 7.

Experiments:
[1] = system: H4; assay: cell viability relative to siNT1 (ATP content); H4 human neuroglioma and GL261 mouse glioma; higher = less toxic; conditions: siRNA concentration 10 nM; 96 h; human
[2] = system: GL261; assay: as above; conditions: siRNA concentration 25 nM; 96 h; mouse
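Also: cells reverse transfected with siRNA duplexes via lipid reagent, ATP read by luminescence, triplicate wells, values scaled to mean viability with non-targeting control siNT1.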

Row | Sequence | cell viability [1] [%] | cell viability [2] [%]
1 | UGUGCGCACAUGUAAACCA | 56.4 | 17
2 | UGUGCGGACAUGUAAACCA | 69.9 | 16.4
3 | UGUGCGUACAUGUAAACCA | 60.4 | 21.7
4 | UGUGCUAACAUGUAAACCA | 94.6 | 64.5
5 | UGUGCUCACAUGUAAACCA | 58.1 | 34.1
6 | UGUGCUGACAUGUAAACCA | 72.2 | 52.7
7 | UGUGCUUACAUGUAAACCA | 85.2 | 29.6
8 | UGUGGAAACAUGUAAACCA | 69.4 | 51.5
9 | UGUGGACACAUGUAAACCA | 38.7 | 23.6
10 | UGUGGAGACAUGUAAACCA | 27.6 | 38.4
11 | UGUGGAUACAUGUAAACCA | 43.9 | 34.9
12 | UGUGGCAACAUGUAAACCA | 48.5 | 25
13 | UGUGGCCACAUGUAAACCA | 9.22 | 13
14 | UGUGGCGACAUGUAAACCA | 44.5 | 31.7
15 | UGUGGCUACAUGUAAACCA | 50.8 | 22.1
16 | UGUGGGAACAUGUAAACCA | 47.7 | 18.8
17 | UGUGGGCACAUGUAAACCA | 16 | 15.7
18 | UGUGGGGACAUGUAAACCA | 25.5 | 16.5
19 | UGUGGGUACAUGUAAACCA | 27.5 | 11.1
20 | UGUGGUAACAUGUAAACCA | 91.3 | 43.8
21 | UGUGGUCACAUGUAAACCA | 33.5 | 7.94
22 | UGUGGUGACAUGUAAACCA | 44.5 | 26.7
23 | UGUGGUUACAUGUAAACCA | 59.8 | 40.5
24 | UGUGUAAACAUGUAAACCA | 94.4 | 64.1

Row | Sequence | cell viability [1] [%] | cell viability [2] [%]
25 | UGUGUACACAUGUAAACCA | 59 | 49.7
26 | UGUGUAGACAUGUAAACCA | 69.4 | 46.3
27 | UGUGUAUACAUGUAAACCA | 47.2 | 29
28 | UGUGUCAACAUGUAAACCA | 54.9 | 24.1
29 | UGUGUCCACAUGUAAACCA | 40.9 | 20.3
30 | UGUGUCGACAUGUAAACCA | 58.1 | 26.5
31 | UGUGUCUACAUGUAAACCA | 61.5 | 12.2
32 | UGUGUGAACAUGUAAACCA | 56.9 | 40.3
33 | UGUGUGCACAUGUAAACCA | 31.1 | 15.2
34 | UGUGUGGACAUGUAAACCA | 21.1 | 15.3
35 | UGUGUGUACAUGUAAACCA | 28.8 | 11.2
36 | UGUGUUAACAUGUAAACCA | 67.5 | 50.1
37 | UGUGUUCACAUGUAAACCA | 30.3 | 30.3
38 | UGUGUUGACAUGUAAACCA | 66.2 | 32.7
39 | UGUGUUUACAUGUAAACCA | 63 | 32.8
40 | UGUUAAAACAUGUAAACCA | 100 | 66.6
41 | UGUUAACACAUGUAAACCA | 87.7 | 53.1
42 | UGUUAAGACAUGUAAACCA | 102 | 52.7
43 | UGUUAAUACAUGUAAACCA | 86.6 | 58.7
44 | UGUUACAACAUGUAAACCA | 56.6 | 60.4
45 | UGUUACCACAUGUAAACCA | 13.4 | 24.2
46 | UGUUACGACAUGUAAACCA | 99.9 | 71.7
47 | UGUUACUACAUGUAAACCA | 64.8 | 61.7
48 | UGUUAGAACAUGUAAACCA | 84 | 45.9

Row | Sequence | cell viability [1] [%] | cell viability [2] [%]
49 | UGUUAGCACAUGUAAACCA | 38.4 | 6.99
50 | UGUUAGGACAUGUAAACCA | 81.8 | 38.2
51 | UGUUAGUACAUGUAAACCA | 68.2 | 18.2
52 | UGUUAUAACAUGUAAACCA | 94.6 | 65.1
53 | UGUUAUCACAUGUAAACCA | 38 | 27.6
54 | UGUUAUGACAUGUAAACCA | 80.3 | 61.5
55 | UGUUAUUACAUGUAAACCA | 84.3 | 65.9
56 | UGUUCAAACAUGUAAACCA | 76 | 66.6
57 | UGUUCACACAUGUAAACCA | 34.5 | 45.1
58 | UGUUCAGACAUGUAAACCA | 56.5 | 58.2
59 | UGUUCAUACAUGUAAACCA | 61.9 | 49
60 | UGUUCCAACAUGUAAACCA | 19.7 | 40.9
61 | UGUUCCCACAUGUAAACCA | 47.8 | 20.3
62 | UGUUCCGACAUGUAAACCA | 8.37 | 38
63 | UGUUCCUACAUGUAAACCA | 16.8 | 24.7
64 | UGUUCGAACAUGUAAACCA | 74.1 | 69.6
65 | UGUUCGCACAUGUAAACCA | 67.7 | 38.5
66 | UGUUCGGACAUGUAAACCA | 61.9 | 54
67 | UGUUCGUACAUGUAAACCA | 70.6 | 48.3
68 | UGUUCUAACAUGUAAACCA | 98.3 | 64.7
69 | UGUUCUCACAUGUAAACCA | 63.9 | 17.2
70 | UGUUCUGACAUGUAAACCA | 68 | 29.6
71 | UGUUCUUACAUGUAAACCA | 75.6 | 20.3
72 | UGUUGAAACAUGUAAACCA | 97 | 72.8

Row | Sequence | cell viability [1] [%] | cell viability [2] [%]
73 | UGUUGACACAUGUAAACCA | 39.5 | 60.7
74 | UGUUGAGACAUGUAAACCA | 59.2 | 61.8
75 | UGUUGAUACAUGUAAACCA | 42.9 | 28.2
76 | UGUUGCAACAUGUAAACCA | 80.5 | 51.3
77 | UGUUGCCACAUGUAAACCA | 3.14 | 7.58
78 | UGUUGCGACAUGUAAACCA | 95 | 41.7
79 | UGUUGCUACAUGUAAACCA | 6.41 | 26.3
80 | UGUUGGAACAUGUAAACCA | 30.4 | 45.9
81 | UGUUGGCACAUGUAAACCA | 17.5 | 27.5
82 | UGUUGGGACAUGUAAACCA | 21.5 | 34.5
83 | UGUUGGUACAUGUAAACCA | 29.2 | 28.9
84 | UGUUGUAACAUGUAAACCA | 68.6 | 58.5
85 | UGUUGUCACAUGUAAACCA | 37.4 | 27.8
86 | UGUUGUGACAUGUAAACCA | 79.2 | 36.4
87 | UGUUGUUACAUGUAAACCA | 59.2 | 32.2
88 | UGUUUAAACAUGUAAACCA | 87 | 62.1
89 | UGUUUACACAUGUAAACCA | 105 | 69.3
90 | UGUUUAGACAUGUAAACCA | 98.3 | 52.6
91 | UGUUUAUACAUGUAAACCA | 97.8 | 66.1
92 | UGUUUCAACAUGUAAACCA | 52.4 | 44.9
93 | UGUUUCCACAUGUAAACCA | 24.7 | 28
94 | UGUUUCGACAUGUAAACCA | 70.1 | 56
95 | UGUUUCUACAUGUAAACCA | 61.4 | 57.9
96 | UGUUUGAACAUGUAAACCA | 88.5 | 41.8

Row | Sequence | cell viability [1] [%] | cell viability [2] [%]
97 | UGUUUGCACAUGUAAACCA | 94.3 | 61.9
98 | UGUUUGGACAUGUAAACCA | 60.2 | 38.2
99 | UGUUUGUACAUGUAAACCA | 85.8 | 10.6
100 | UGUUUUAACAUGUAAACCA | 83.4 | 49.1
101 | UGUUUUCACAUGUAAACCA | 80.9 | 60.2
102 | UGUUUUGACAUGUAAACCA | 89.9 | 59
103 | UGUUUUUACAUGUAAACCA | 87.6 | 57.3
104 | UUAAAAAACAUGUAAACCA | 109 | 55.7
105 | UUAAAACACAUGUAAACCA | 83.9 | 60.8
106 | UUAAAAGACAUGUAAACCA | 103 | 76.5
107 | UUAAAAUACAUGUAAACCA | 104 | 50.1
108 | UUAAACAACAUGUAAACCA | 98.9 | 70.8
109 | UUAAACCACAUGUAAACCA | 27.3 | 50.4
110 | UUAAACGACAUGUAAACCA | 80.5 | 59.6
111 | UUAAACUACAUGUAAACCA | 71.1 | 39.7
112 | UUAAAGAACAUGUAAACCA | 115 | 60.6
113 | UUAAAGCACAUGUAAACCA | 36.7 | 28.9
114 | UUAAAGGACAUGUAAACCA | 67.2 | 50.1
115 | UUAAAGUACAUGUAAACCA | 43.2 | 46.2
116 | UUAAAUAACAUGUAAACCA | 94.3 | 64.7
117 | UUAAAUCACAUGUAAACCA | 67.9 | 40
118 | UUAAAUGACAUGUAAACCA | 89.8 | 74.8
